# The supplement of paper PMC9588766
# Structures can show the parent of a compound that is named as a salt. In all, about 1,900 compounds were measured (“cell viability of compound + 1 nM pemigatinib relative to pemigatinib-only (DMSO) wells”: median about 0.95, lowest 2% from about 0.22 on). This is one part of the list.
# System: PDC-DUC18828
# Assay: cell viability of compound + 1 nM pemigatinib relative to pemigatinib-only (DMSO) wells (fraction); PDC-DUC18828 is a patient-derived cholangiocarcinoma cell line; higher = less growth inhibition
# Settings: first compound 1 µM; pemigatinib concentration 1 nM; 72 h
# Experimental: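 Selleck Bioactive library screen in the patient-derived FGFR2 fusion-positive ICC cell line PDC-DUC18828 (500 cells/well). Each compound was tested at 1 uM with 1 nM pemigatinib, in triplicate, for 72 h. Viability was read by CellTiter-Glo and normalised to plate DMSO controls. Value is the paper's averaged normalised viability.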
row,Structure (SMILES),cell viability
1,COc1ccc(-c2cc(=O)c3c(O)cc(O)cc3o2)cc1O [Diosmetin] + CCN1C(=O)N(c2c(F)c(OC)cc(OC)c2F)Cc2cnc3[nH]c(CN4CCOCC4)cc3c21 [pemigatinib],1.01
2,CN1CC[C@H](c2c(O)cc(O)c3c(=O)cc(-c4ccccc4Cl)oc23)[C@H](O)C1 [Flavopiridol HCl] + CCN1C(=O)N(c2c(F)c(OC)cc(OC)c2F)Cc2cnc3[nH]c(CN4CCOCC4)cc3c21 [pemigatinib],0.262
3,CN1CC[C@H](c2c(O)cc(O)c3c(=O)cc(-c4ccccc4Cl)oc23)[C@H](O)C1 [Flavopiridol (Alvocidib)] + CCN1C(=O)N(c2c(F)c(OC)cc(OC)c2F)Cc2cnc3[nH]c(CN4CCOCC4)cc3c21 [pemigatinib],0.222
4,CC(C)CC(=O)Nc1n[nH]c2c1CN(C(=O)C1CCN(C)CC1)C2(C)C + CCN1C(=O)N(c2c(F)c(OC)cc(OC)c2F)Cc2cnc3[nH]c(CN4CCOCC4)cc3c21 [pemigatinib],0.874
5,O=C(NCCS(=O)(=O)c1ccc(C(F)(F)F)cn1)c1ccc(Cl)cc1 + CCN1C(=O)N(c2c(F)c(OC)cc(OC)c2F)Cc2cnc3[nH]c(CN4CCOCC4)cc3c21 [pemigatinib],0.992
6,CC[C@H]1OC(=O)[C@H](C)[C@@H](O[C@H]2C[C@@](C)(OC)[C@@H](O)[C@H](C)O2)[C@H](C)[C@@H](O[C@@H]2O[C@H](C)C[C@H](N(C)C)[C@H]2O)[C@](C)(O)C[C@@H](C)/C(=N\OCOCCOC)[C@H](C)[C@@H](O)[C@]1(C)O [Roxithromycin] + CCN1C(=O)N(c2c(F)c(OC)cc(OC)c2F)Cc2cnc3[nH]c(CN4CCOCC4)cc3c21 [pemigatinib],0.941
7,CC(=O)N1c2ccc(-c3ccc(C(=O)O)cc3)cc2[C@H](Nc2ccc(Cl)cc2)C[C@@H]1C + CCN1C(=O)N(c2c(F)c(OC)cc(OC)c2F)Cc2cnc3[nH]c(CN4CCOCC4)cc3c21 [pemigatinib],0.581
8,Nc1nc(F)nc2c1ncn2[C@@H]1O[C@H](CO)[C@@H](O)[C@@H]1O [Fludarabine] + CCN1C(=O)N(c2c(F)c(OC)cc(OC)c2F)Cc2cnc3[nH]c(CN4CCOCC4)cc3c21 [pemigatinib],1.05
9,O=c1[nH]c(=O)n(C2CC(O)C(CO)O2)cc1Br (stereo not given) [Bromodeoxyuridine (BrdU)] + CCN1C(=O)N(c2c(F)c(OC)cc(OC)c2F)Cc2cnc3[nH]c(CN4CCOCC4)cc3c21 [pemigatinib],0.961
10,NC(=O)N1c2ccccc2C=Cc2ccccc21 [Carbamazepine] + CCN1C(=O)N(c2c(F)c(OC)cc(OC)c2F)Cc2cnc3[nH]c(CN4CCOCC4)cc3c21 [pemigatinib],0.996
